Among all 48,000 compounds or so, about 550 (1.1%) were called active. About 4% were inconclusive and are not listed. Cut-off read from the data, not from the text of the source: active = potency below about 15 µM; inconclusive = mostly about 16 µM to 33 µM; inactive = weaker than that. The list shows a part of the results. Some results are limits rather than exact numbers.
Potency is the fitted concentration of half-maximal effect.

The test deals with Lysosomal acid glucosylceramidase (Homo sapiens) (UniProt P04062). The test is described as follows: Glucocerebrosidase.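 Note: the screen sought inhibitors.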 Particulars: purified enzyme, resorufin glucoside fluorescence (screen aimed at inhibitors), 20 min. Put shortly: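 Wild-type enzyme at 0.2 nM final in 50mM citric acid/KH2PO4, 10mM sodium taurocholate, 0.01% tween-20, pH 5.9, with resorufin beta-D-glucopyranoside at 30 uM final. Compounds titrated, 20 min at RT, red fluorescence read; AC50 from titration.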
UniProt P04062, sequence (P04062 whole entry, looked up): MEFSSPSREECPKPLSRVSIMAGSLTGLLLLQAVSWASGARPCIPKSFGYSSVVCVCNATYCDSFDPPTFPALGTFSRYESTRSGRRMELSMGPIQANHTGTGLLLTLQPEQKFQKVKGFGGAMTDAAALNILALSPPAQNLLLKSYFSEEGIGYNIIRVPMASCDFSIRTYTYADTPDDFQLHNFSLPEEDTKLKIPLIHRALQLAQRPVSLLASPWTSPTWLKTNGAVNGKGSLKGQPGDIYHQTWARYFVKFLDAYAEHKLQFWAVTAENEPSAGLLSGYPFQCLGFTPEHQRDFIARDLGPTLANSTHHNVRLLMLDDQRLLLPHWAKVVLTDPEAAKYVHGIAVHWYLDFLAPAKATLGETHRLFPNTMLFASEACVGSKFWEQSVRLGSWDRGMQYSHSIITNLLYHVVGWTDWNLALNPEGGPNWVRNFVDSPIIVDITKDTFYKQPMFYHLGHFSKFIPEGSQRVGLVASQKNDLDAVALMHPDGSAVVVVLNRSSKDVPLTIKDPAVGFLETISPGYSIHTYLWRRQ
As to `COC(=O)[C@H](CCSC)NC(=O)Nc1ccc(OC)cc1`, the Potency is inactive: > 76.9 µM.
As for `COCCSc1ccccc1C(=O)Nc1nncs1`, the figure is inactive: > 76.9 µM; as for `O=C1c2ccccc2NC(c2ccc(Cl)cc2Cl)N1O` (stereo not drawn), inactive: > 76.9 µM.
For `COc1ccc(-c2cc(C(=O)N3CCCc4ccccc43)no2)cc1OC`, the Potency was inactive: > 76.9 µM.
On to `Cc1cc(C)n(S(=O)(=O)c2ccc(C)c(C)c2C)n1`, for which the Potency was inactive: > 76.9 µM.
For `CCN(CC(=O)Nc1cccc(C(C)=O)c1)S(=O)(=O)c1ccc(OC)cc1` the value was inactive: > 76.9 µM.
As to `COc1cccc(C(=O)CSc2nnc(COc3cccc4cccnc34)o2)c1`, the Potency is inactive: > 76.9 µM.
For `O=c1[nH]nc(Sc2ncnc3sccc23)n1CCc1ccccc1` the value was inactive: > 76.9 µM; for `O=C(c1ccc(Cl)cc1)N1CCCOC1`, inactive: > 76.9 µM; for `c1nc(N2CCCC2)c2[nH]cnc2n1`, inactive: > 76.9 µM.
For `O=C(NCc1ccco1)C(Cc1ccccc1)NS(=O)(=O)c1cccc2nsnc12` (stereo not drawn), the Potency is inactive: > 76.9 µM.
For `CS(=O)(=O)N1CCC(C(=O)NCCN2CCN(Cc3ccccc3)CC2)CC1` the value was inactive: > 76.9 µM.
As for `C=C(C)c1cccc(C(C)(C)NC(=O)N2CCN(c3ncccn3)CC2)c1`, the figure is inactive: > 76.9 µM; as for `CCOc1ccccc1CN1C(=O)c2ccccc2C1C(=O)NCC1CCCO1` (stereo not drawn), inactive: > 76.9 µM; as for `CCOC(=O)Nc1c(C(=O)OC)[nH]c2cccc(OC)c12`, inactive: > 76.9 µM.
As for `Cc1cccc(-n2nnc(C(=O)Nc3ccc(F)cc3)c2N)c1`, the figure is inactive: > 76.9 µM; as for `O=C(NC1CCCCCCC1)c1ccco1`, inactive: > 76.9 µM.
Consider `O=C(Nc1ccc(S(=O)(=O)N2CCc3ccccc3C2)cc1)C1CCCO1` (stereo not drawn), for which the Potency was inactive: > 76.9 µM.
For `CCOC(=O)C1CCN(c2c(NCc3ccc(C(=O)NCCOC)cc3)c(=O)c2=O)CC1` the value was inactive: > 76.9 µM.
For `COc1ccc(N(CC(=O)NCc2ccco2)S(C)(=O)=O)cc1` the value was inactive: > 76.9 µM.
For `CCC(NS(=O)(=O)c1ccc(C)cc1)C(=O)N1CCC2(O)CCCCC2C1` (stereo not drawn), the Potency is inactive: > 76.9 µM.
As for `c1coc(-c2nc(-c3ccncc3)no2)c1`, the Potency is inactive: > 76.9 µM.
As to `COc1ccc(N2CCN(C(CNS(=O)(=O)c3cccs3)c3cccnc3)CC2)cc1` (stereo not drawn), the Potency was inactive: > 76.9 µM.
As for `COCCNC(C)C(=O)C12CC3CC(CC(C3)C1)C2` (stereo not drawn), the Potency is inactive: > 76.9 µM.
As for `CC(C)=CC(=O)Nc1ccccc1C(N)=O`, the Potency is inactive: > 76.9 µM.
As for `CSc1n[nH]c(NC2=CC(=O)CCC2)n1`, the figure is inactive: > 76.9 µM; as for `COc1ccccc1-c1nnc2sc(COc3ccc(Cl)cc3Cl)nn12`, inactive: > 76.9 µM.
Regarding `CCN(C1CCCCC1)S(=O)(=O)c1ccc(C(=O)O)cc1`, the Potency was inactive: > 76.9 µM.
On to `Cc1cccc2nc(Cn3c(=O)n(CCC(=O)NCc4ccco4)c(=O)c4ccccc43)cc(=O)n12`, for which the Potency is inactive: > 76.9 µM.
For `Cc1noc(C)c1CSc1nc2cc(S(=O)(=O)N3CCOCC3)ccc2o1`, the Potency is inactive: > 76.9 µM.
As for `COc1ccccc1CN1C(=O)[C@@H]2C(CCC(N)=O)NC3(C(=O)Nc4c3ccc(Cl)c4C)[C@@H]2C1=O` (stereo partly drawn), the figure is inactive: > 76.9 µM; as for `Cc1cc(NC(=O)CSc2ccc3nnc(-c4cccc(F)c4)n3n2)no1`, inactive: > 76.9 µM; as for `COc1ccccc1CNC(=O)c1ccoc1C`, inactive: > 76.9 µM.
For `CC(=O)Nc1nonc1NC(=O)CSC1=NCCS1` the value was inactive: > 76.9 µM; for `O=C(CCN1C(=O)c2ccccc2C1=O)N1CCN(C(=O)c2ccccc2)CC1`, inactive: > 76.9 µM.
As for `O=C1OC(Nc2ccc(F)cc2F)c2ccccc21` (stereo not drawn), the figure is inactive: > 76.9 µM.
On to `COc1ccc(OC)c(NC(=O)C23CCC(C)(C(=O)O2)C3(C)C)c1` (stereo not drawn), for which the Potency is inactive: > 76.9 µM.
As for `COc1cc(OC)c(NC(=O)CCNS(=O)(=O)c2cc(Br)cnc2N)cc1Cl`, the figure is inactive: > 76.9 µM.
As for `CCn1c(=O)c(C(=O)CN2CCOCC2)c(N)n(Cc2ccccc2)c1=O`, the figure is inactive: > 76.9 µM; as for `c1ccc(-n2ncc3c(N4CCN(c5ccccn5)CC4)nc(N4CCCCC4)nc32)cc1`, inactive: > 76.9 µM.
As for `COCCNC(=O)c1ccc2ccccc2n1`, the figure is inactive: > 76.9 µM; as for `CC(C)C(=O)Nc1cccc(NC(=O)CCN2C(=O)c3ccccc3S2(=O)=O)c1`, inactive: > 76.9 µM; as for `Cc1nn(-c2ccccc2)c2nc(N)c(C#N)c(-c3ccc(F)cc3)c12`, inactive: > 76.9 µM.
Regarding `c1ccc2c(CNCCN3CCOCC3)cccc2c1`, the Potency is inactive: > 76.9 µM.
For `COc1ccccc1-n1c(CNC(=O)COc2ccccc2)n[nH]c1=S` the value was inactive: > 76.9 µM.
As for `CCC(C)c1ccc(O)c(NC(=O)c2ncn[nH]2)c1` (stereo not drawn), the figure is inactive: > 76.9 µM.
Take `O=C(NCCOc1ccccc1)c1ncn[nH]1`: the Potency is inactive: > 76.9 µM.
As for `CCCCNC(=O)CC1N=C2c3ccccc3N=C(SCC(=O)Nc3ccc(OC)cc3)N2C1=O` (stereo not drawn), the figure is inactive: > 76.9 µM; as for `COc1cc(C2C(C#N)=C(N)Oc3c2oc(CO)cc3=O)cc(OC)c1OC` (stereo not drawn), inactive: > 76.9 µM.
For `CC(C)(C)C1CCc2onc(C(=O)N3CCOCC3)c2C1` (stereo not drawn) the value was inactive: > 76.9 µM; for `Cn1c(C(=O)OC(C(=O)NC2CCCCC2)c2ccncc2)cc2sccc21` (stereo not drawn), inactive: > 76.9 µM; for `COCCNC(=O)COc1cc(=O)n(C)c2ccccc12`, inactive: > 76.9 µM.
As for `CC1=CCC(COC(=O)Nc2ccccc2)CC1` (stereo not drawn), the figure is inactive: > 76.9 µM; as for `CCSc1nc2ccccc2n1CCC(=O)O`, inactive: > 76.9 µM; as for `C=CCn1c(N)nc2ccccc21`, inactive: > 76.9 µM.
On to `O=C1COc2ccc(OCc3ccc(F)cc3)cc21`, for which the Potency was inactive: > 76.9 µM.
For `CCOC(=O)C1C(=O)NC(N2CCN(c3ccccc3)CC2)=NC1c1ccco1` (stereo not drawn) the value was inactive: > 76.9 µM.
As for `Cn1c(SCc2ccccc2)nnc1-c1cccs1`, the figure is inactive: > 76.9 µM.
For `CC1CN(C(=O)Cc2ccc(-c3ccccc3)cc2)CC(C)O1` (stereo not drawn) the value was inactive: > 76.9 µM.
As for `Nc1nonc1-n1nncc1-c1ccccc1`, the Potency is inactive: > 76.9 µM.
For `C=CCN(CC=C)CC(O)Cn1c2ccccc2c2ccccc21` (stereo not drawn) the value was “inactive”; for `COc1ccc(OC)c(-c2c[n+](=O)c3c(n2[O-])CCCC3)c1`, inactive: > 76.9 µM.
Consider `O=C(NC1CCCCC1)NC1CCN(S(=O)(=O)Cc2ccccc2)CC1`, for which the Potency is inactive: > 76.9 µM.
For `Cc1ccc(C)c2[nH]c(=O)c(CN(Cc3ccc4c(c3)OCO4)Cc3nnnn3Cc3ccco3)cc12` the value was inactive: > 76.9 µM; for `COc1ccc(OC)c(S(=O)(=O)N2CCC(C(=O)NC(C)c3ccccc3)CC2)c1` (stereo not drawn), inactive: > 76.9 µM; for `CCC(OC(=O)CC1Sc2ccccc2NC1=O)C(=O)NCC1CCCO1` (stereo not drawn), inactive: > 76.9 µM.
As for `CC(C)(C)n1nnnc1C(c1cccs1)N(Cc1ccccc1)Cc1ccco1` (stereo not drawn), the Potency entry was “inactive”.
As for `COc1cccc(C2CC(c3cccs3)Nc3ncnn32)c1` (stereo not drawn), the figure is inactive: > 76.9 µM; as for `O=C(O)c1ccc(NS(=O)(=O)/C=C/c2ccccc2)cc1O`, inactive: > 76.9 µM.
In the case of `C#CCN1C(=O)C(O)(CC(=O)c2cc(OC)ccc2OC)c2ccccc21` (stereo not drawn), the Potency is inactive: > 76.9 µM.
Turning to `C=CCN1C(=O)CN=C1NCc1ccccc1`, the Potency is inactive: > 76.9 µM.
In the case of `Cn1c(SCC(=O)Nc2cccc(NC(=O)c3cccs3)c2)nnc1-c1ccncc1`, the Potency was inactive: > 76.9 µM.
As for `O=C(CN1CCN(c2ccccn2)CC1)N1c2ccccc2Sc2ccc(C(F)(F)F)cc21`, the entry is “inactive”; as for `Cc1cc(C)c(S(=O)(=O)NCc2cn3c(C)csc3n2)cc1C`, inactive: > 76.9 µM.
For `O=C(Nc1ccccc1)N(Cc1cccnc1)Cc1ccco1` the value was inactive: > 76.9 µM.
For `CCc1sc(C(=O)NC)cc1Br` the value was inactive: > 76.9 µM; for `Cc1cccc2cc(CN(Cc3cccs3)C3(c4nnnn4C4CCCC4)CCCC3)c(=O)[nH]c12`, inactive: > 76.9 µM; for `CCOC(=O)c1c(C)oc2c1c(/C=N/c1ccccn1)c(O)c1ccccc12`, inactive: > 76.9 µM.
Turning to `Cc1ccc(C)c(N2CCN(C(=O)C3CCN(c4nnc(N5CCCC5=O)s4)CC3)CC2)c1`, the Potency is inactive: > 76.9 µM.
For `COc1ccc(C(=O)Nc2ccc(Cl)cn2)cc1Cl` the value was inactive: > 76.9 µM; for `COc1cccc(N2C(=O)C3CC=C(Cl)CC3C2=O)c1` (stereo not drawn), inactive: > 76.9 µM; for `Cc1csc(NC(=O)c2ccoc2C)n1`, inactive: > 76.9 µM.
For `COc1cc(C2=NOC(C(=O)N3CCOCC3)C2)cc(OC)c1OC` (stereo not drawn) the value was inactive: > 76.9 µM; for `Cn1ccnc1Sc1nnnn1-c1ccccc1`, inactive: > 76.9 µM.
For `Cn1c(/C(C#N)=C(\O)c2ccc(S(=O)(=O)N3CCCCC3)cc2)nc2ccccc21` the value was inactive: > 76.9 µM; for `O=C(NCc1ccc(F)cc1)c1ccc(CS(=O)(=O)Cc2ccccc2F)o1`, inactive: > 76.9 µM; for `COc1cc2c(C#N)c(N3CCOCC3)nc(N)c2c(N)n1`, inactive: > 76.9 µM.
On to `Nn1c(SCC(=O)Nc2ccc3c(c2)OCO3)nnc1C1CC1`, for which the Potency was inactive: > 76.9 µM.
For `Cc1ccc2cccc(SCC(=O)NCc3ccco3)c2n1` the value was inactive: > 76.9 µM; for `CCc1ccccc1N(CC(=O)OC)S(C)(=O)=O`, inactive: > 76.9 µM; for `CCOc1ccc(NC(=O)C2CCN(S(=O)(=O)c3c(C)n[nH]c3C)CC2)cc1`, inactive: > 76.9 µM.
For `O=C(CCN1C(=O)COc2ccccc21)NCc1cccs1` the value was inactive: > 76.9 µM; for `CC(C)CC(OC(=O)c1ccco1)C(=O)NCC1CCCO1` (stereo not drawn), inactive: > 76.9 µM.

The values above are taken from PubChem BioAssay AID360 (National Center for Advancing Translational Sciences (NCATS), 2006).
